Data: PubChem BioAssay AID686970 (National Center for Advancing Translational Sciences (NCATS), 2013)
Hit rate of the full screen: of about 360,000 compounds, about 6,000 (1.7%) were called active. Inconclusive results, whose numbers are uncertain, are shown with a selection of clear calls. Calls follow the shape of the dose curve; as a rule, active = well fitted cell-killing curve with a large enough effect; inconclusive = small, poorly fitted or top-dose-only effect, or effect the other way; inactive = flat fitted curve, though single readings scatter. Potencies of inconclusive entries are left out as doubtful fits.

Test: qHTS for induction of synthetic lethality in tumor cells producing 2HG: qHTS for the HT-1080-NT fibrosarcoma cell line;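 also: NT is the 2HG producing partner of a matched IDH1 knockdown line; nearly all actives have a fitted effect of over 55% in size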;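 as to activity, negative = less viability: 0% = DMSO-treated cells and -100% = media-only wells without cells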
Details: HT-1080-NT fibrosarcoma viability, CellTiter-Glo ATP luminescence, 48 h; activity, negative = less viability: at 46.1 µM (top of the series) unless noted
How it was run: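 Toxicity toward the 2HG-producing NT line was scored as %Activity, normalised to DMSO and no-cell wells, from CellTiter-Glo luminescence after 48 hours' treatment.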
Potency is read from the fitted curve at half-maximal effect; tags tell the direction and shape of the fitted curve.

| SMILES | Potency | activity, negative = less viability |
| --- | --- | --- |
| Cc1cccc(C(=O)N/N=C/c2ccc(OC3CSC3)cc2)c1 | inconclusive [cytotoxic, full curve, poor fit] |  |
| CCOc1ccccc1C(=O)NCC(=O)NNC(=O)CN(C)S(=O)(=O)c1ccc(Cl)cc1 |  | inconclusive: -12.8% [cytotoxic] |
| CCOc1cc(C)nc(NCc2ccccc2)n1 | inactive |  |
| CCC/C=C/c1ccc(CN2C(CC(C)C)C(=O)N(Cc3cn(CCC4OCCO4)nn3)CCS2(=O)=O)cc1 (configuration not stated) | inconclusive [cytotoxic, single point] |  |
| COc1ccc(C(=O)Nc2nc(C)c3cc4c(cc3n2)OCO4)cc1 | inconclusive [cytotoxic, single point] |  |
| COc1ccc(Nc2ncnc3c2cnn3Cc2ccccc2)cc1 | inconclusive [cytotoxic, full curve] |  |
| CN(C)CCNC(=O)c1ccc(-c2cn3c(-c4ccc(Oc5ccccc5)cc4)cnc3cn2)cc1 | inconclusive [cytotoxic, single point] |  |
| Cc1cc(C2=NNC(=Nc3ccc(S(=O)(=O)N4CCOCC4)cc3)SC2)c(C)n1CC1CCCO1 (configuration not stated) | inconclusive [cytotoxic, single point] |  |
| OC(c1ccc(F)cc1)c1ncc(-c2ccc(Oc3ccccc3)cc2)[nH]1 (configuration not stated) | inconclusive [cytotoxic, single point] |  |
| O=C(CNC1CCCCCC1)Nc1ccccc1N1CCCCC1 | inconclusive [cytotoxic, single point] |  |
| Cc1cc(N2CCN(C)CC2)nc2ccc(NC(=S)NCCC(C)C)cc12 | inconclusive [cytotoxic, single point] |  |
| Cc1cccc(OCCn2cc(/C=N/NC(=O)c3ccncc3)c3ccccc32)c1 | inconclusive [cytotoxic, single point] |  |
| CN(C)CCSc1nc(-c2ccccc2)nc2c1COC(C)(C)C2 | inconclusive [cytotoxic, single point] |  |
| Clc1ccc2c(SCC3CO3)c3ccccc3nc2c1 (configuration not stated) | inconclusive [cytotoxic, single point] |  |
| Cn1c(-c2cccc(Br)c2)cnc1NCc1ccccc1O | inactive |  |
| Cc1c(N2C(=O)/C(=C3/C(=O)N(C)c4ccccc43)SC2=S)c(=O)n(-c2ccccc2)n1C | inactive |  |
| Cc1ccccc1NC(=O)/C=C/c1ccc([N+](=O)[O-])s1 | active: 4.11 µM |  |
| CCC(C)[C@H]1CN=C(N)N1CCc1cccc2ccccc12 (some centres not stated) | inconclusive [cytotoxic, single point] |  |
| CC(=O)C1=CCC(c2ccccc2Cl)N(S(=O)(=O)c2ccc(C)cc2)C1 (configuration not stated) | inconclusive [cytotoxic, single point] |  |
| Cc1cc2c(OCC(O)CNC(C)(C)C)cccc2[nH]1 (configuration not stated) | inactive |  |
| Cc1ccc(CNC(=O)Cc2ccc(-c3ccccc3)cc2)cc1 | active: 3.98 µM |  |
| COc1ccc(NC(=O)c2ccccc2SC)c(OC)c1 | inconclusive [rising, single point] |  |
| Cc1cccc(NC(=O)CCc2ccc(N3C(N)=NC(N)=NC3(C)C)cc2)c1 | active: 1.03 µM |  |
| FC(F)(F)c1cccc(/C=N/NC(=S)NC2CCCCC2)c1 | inconclusive [cytotoxic, single point] |  |

| SMILES | Potency | activity, negative = less viability |
| --- | --- | --- |
| CCCOc1ccc(F)cc1-c1cc(C(=O)Nc2ccc(F)c(Cl)c2)[nH]n1 | inconclusive [cytotoxic, single point] |  |
| COc1ccc(-c2cc(C)no2)cc1S(=O)(=O)NCc1cccc(C)c1 | active: 18.4 µM |  |
| O=C(CSc1nc(Cc2ccccc2)nc2ccccc12)c1ccc2c(c1)OCCO2 | inconclusive [cytotoxic, single point] |  |
| CC(C)CCOc1cccc(OCC(=O)Nc2ccncc2)c1 | inconclusive [cytotoxic, partial curve] |  |
| O=C(Nc1ccc(NC(=O)c2ccccc2F)cc1)c1cccs1 | inactive |  |
| CC(C)(C)NC(=O)C(c1cc2ccccc2o1)n1c(=O)c(-c2cc3ccccc3[nH]2)nc2ccccc21 (configuration not stated) | inconclusive [cytotoxic, single point] |  |
| O=C(Nc1cccc(-n2cccn2)c1)C1CCCN(Cc2cc3ccccc3[nH]2)C1 (configuration not stated) | inconclusive [cytotoxic, single point] |  |
| COC(=O)c1ccc(/C=N/Nc2nc3ccccc3[nH]2)cc1 | inconclusive [cytotoxic, single point] |  |
| COc1ccccc1-c1cn[nH]c1-c1ccc(OCc2ccccc2F)cc1O | inconclusive [cytotoxic, single point] |  |
| CCc1cccc2c1Sc1ccccc1CC2N1CCNCC1 (configuration not stated) | inactive |  |
| CC(C)N=c1scc(-c2cccs2)n1/N=C/c1ccc(O)c(O)c1O | inconclusive [cytotoxic, single point] |  |
| Cc1ccc(Nc2ncnc3ccccc23)cc1 | inactive |  |
| CCCc1c(Cc2cccc(F)c2)ncn1Cc1cccc(-c2ccccc2)c1 | inconclusive [cytotoxic, single point] |  |
| CC(C)C1C(=O)N(Cc2cn(CCC3OCCCO3)nn2)CCS(=O)(=O)N1Cc1ccc(-c2ccc(Cl)c(Cl)c2)cc1 (configuration not stated) | active: 16.4 µM |  |
| Cc1c(CC(=O)NCCCC(=O)O)c(=O)oc2cc3c(cc12)CCC(C)(C)O3 |  | inconclusive: 34.4% |
| COc1ccc(C(=O)NC2CCCc3c2cnn3-c2cc(F)cc(F)c2)c(OC)c1OC (configuration not stated) | inconclusive [cytotoxic, single point] |  |
| COc1ccccc1/C=C/C1(C(=O)NC2CCCC2)CC(=O)N1c1ccccc1 (configuration not stated) | active: 16.4 µM |  |
| Cc1ccc(C(=O)Nc2nnc(-c3ccc(C(C)(C)C)cc3)s2)cc1 | inactive |  |
| CC(=O)Nc1cccc(-c2ccnc3c2CC(C)(C(=O)Nc2cccc(C(F)(F)F)c2)O3)c1 (configuration not stated) | inconclusive [cytotoxic, single point] |  |
| CN1CCN(CC(=O)Nc2nc(-c3c[nH]c4ccccc34)cs2)CC1 | inconclusive [cytotoxic, single point] |  |
| C=CCn1c(Cc2cccs2)nnc1SC/C=C/c1ccccc1 | inactive |  |
| COC(=O)c1cc2sccc2n1CC(=O)Nc1cc(OC)cc(OC)c1 | inconclusive [cytotoxic, single point] |  |
| N#CCCN(C(=O)CSc1ncccn1)c1ccc2c(c1)OCCO2 | inactive |  |
| CN1CCN(S(=O)(=O)c2cccc(C(=O)NC3(C)CCS(=O)(=O)C3)c2)CC1 (configuration not stated) | inactive |  |

| SMILES | Potency | activity, negative = less viability |
| --- | --- | --- |
| NC(COCc1ccccc1)c1csc(Nc2nncc3ccccc23)n1 (configuration not stated) | inconclusive [cytotoxic, single point] |  |
| COc1ccc(-c2cc(NC=O)c3ncc(-c4cnn(C)c4)n3c2)cc1 |  | inconclusive: -30.5% [cytotoxic] |
| COc1ccc(C2c3c(ncn(Cc4ccco4)c3=N)Oc3ccc4ccccc4c32)cc1 (configuration not stated) | active: 20.6 µM |  |
| O=C(Nc1ccc(Cl)cn1)C1C(c2ccccc2)C1(Cl)Cl (configuration not stated) | inconclusive [cytotoxic, single point] |  |
| O=C(NCc1ccccc1)NC(=O)c1ccccc1F | inactive |  |
| COc1ccc(N2CCN(c3ncnc4scc(-c5ccccc5)c34)CC2)cc1 | inconclusive [cytotoxic, single point] |  |
| O=[N+]([O-])c1ccc(/C=C/c2ccc3cccc(O)c3n2)cc1 | inconclusive [cytotoxic, single point] |  |
| CC(C)c1ccc(NC(=O)c2ccc(-c3ccnn3C)c3ccoc23)cc1 | active: 14.6 µM |  |
| Oc1ccc(N=Nc2cccc(C(F)(F)F)c2)cc1C=Nc1ccc(N2CCOCC2)cc1 | inactive |  |
| Cc1ccc(C2C(=O)c3ccccc3C2=O)cc1 | inactive |  |
| CSc1ccc(OC2(C)CCN(Cc3ccc(OC(C)C)cc3)C2)cc1 (configuration not stated) | inconclusive [cytotoxic, single point] |  |
| COc1ccc(/C=C2\Oc3cc(OC(=O)N4CCOCC4)ccc3C2=O)cc1 | inactive |  |
| CC(C)(C)NC(=O)C(c1cc2ccccc2o1)n1c(-c2ccc(-c3ccccc3)cc2)nc2ccccc21 (configuration not stated) | inconclusive [cytotoxic, single point] |  |
| CCOc1ccc(C(=O)Nc2nc3ccccc3[nH]2)cc1OCC | inconclusive [cytotoxic, single point] |  |
| COc1ccc(CCN2C(=O)NC(NS(=O)(=O)c3ccc(NC(C)=O)cc3)(C(F)(F)F)C2=O)cc1OC (configuration not stated) | inactive |  |
| COc1cc(OC)c(/C=C2\SC(=O)N(CC(=O)Nc3ccccc3F)C2=O)c(OC)c1 | inactive |  |
| CC(=O)c1sc2nc(CSc3nnnn3-c3ccccc3)[nH]c(=O)c2c1C | inactive |  |
| O=C(C#Cc1ccccc1)c1ccc([N+](=O)[O-])cc1 | inconclusive [cytotoxic, single point] |  |
| NC(c1csc(Nc2cc(Oc3ccccc3)ncn2)n1)C1CCCCC1 (configuration not stated) | inconclusive [cytotoxic, single point] |  |
| O=c1c(Cl)c(NCc2ccccc2Cl)cnn1C12CC3CC(CC(C3)C1)C2 | inactive |  |
| COc1cc(Cl)ccc1OC1(C)CCN(Cc2cccc(OC)c2OC)C1 (configuration not stated) | inconclusive [cytotoxic, single point] |  |
| CCNS(=O)(=O)c1ccc(NC(=O)Nc2cccc(C(F)(F)F)c2)cc1 | inconclusive [cytotoxic, single point] |  |
| CC1=CC2=NC(=O)/C(=C\c3cn(C)c4ccccc34)C(=N)N2O1 | inactive |  |
| CCN1CCN(c2oc(-c3ccccc3)nc2S(=O)(=O)c2ccc(C)cc2)CC1 | inactive |  |
